Laboratory results: the supplement of paper PMC8728848
Some of the results follow.

Columns and labels:
Test in all cases: glycan array binding signal (z-score within array); higher = stronger binding
Conditions in all cases: glycan notation: IUPAC condensed, linker removed
[1] = target: Gal(b1-3)GlcNAc(b1-3)Gal(b1-4)GlcNAc(b1-2)[Gal(b1-3)GlcNAc(b1-3)Gal(b1-4)GlcNAc(b1-6)]Man(a1-6)[Gal(b1-3)GlcNAc(b1-3)Gal(b1-4)GlcNAc(b1-2)Man(a1-3)]Man(b1-4)GlcNAc(b1-4)[Fuc(a1-6)]GlcNAc
In short: (§1)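 The binding signal is a Z-score computed within each array and averaged over linkers. Arrays of the same protein sequence at different concentrations or buffers were also averaged together. Data originate from 3228 arrays in the Consortium for Functional Glycomics database, kept only where the protein sequence was available.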

[2] = target: Gal(b1-3)GlcNAc(b1-3)Gal(b1-4)GlcNAc(b1-3)Gal(b1-4)GlcNAc(b1-2)[Gal(b1-3)GlcNAc(b1-3)Gal(b1-4)GlcNAc(b1-3)Gal(b1-4)GlcNAc(b1-6)]Man(a1-6)[Gal(b1-3)GlcNAc(b1-3)Gal(b1-4)GlcNAc(b1-3)Gal(b1-4)GlcNAc(b1-2)Man(a1-3)]Man(b1-4)GlcNAc(b1-4)[Fuc(a1-6)]GlcNAc
In short: as §1

[3] = target: Gal(b1-3)GlcNAc(b1-3)Gal(b1-4)GlcNAc(b1-6)[Gal(b1-3)GlcNAc(b1-3)]Gal(b1-4)Glc
In short: as §1

[4] = target: Gal(b1-3)GlcNAc(b1-3)Gal(b1-4)[Fuc(a1-3)]GlcNAc
In short: as §1

[5] = target: Gal(b1-3)GlcNAc(b1-3)Gal(b1-4)[Fuc(a1-3)]GlcNAc(b1-6)[Gal(b1-3)GlcNAc(b1-3)]Gal(b1-4)Glc
In short: as §1

[6] = target: Gal(b1-3)GlcNAc(b1-3)GalNAc
In short: as §1

[7] = target: Gal(b1-3)GlcNAc(b1-6)Gal(b1-4)GlcNAc
In short: as §1

[8] = target: Gal(b1-3)GlcNAc(b1-6)GalNAc
In short: as §1

[9] = target: Gal(b1-3)GlcNAc(b1-6)[Gal(b1-3)]GalNAc
In short: as §1

Gal(b1-3)GlcNAc6S = target: Gal(b1-3)GlcNAc6S
In short: as §1

[10] = target: Gal(b1-3)[Fuc(a1-4)]GlcNAc
In short: as §1

[11] = target: Gal(b1-3)[Fuc(a1-4)]GlcNAc(b1-2)Man
In short: as §1

[12] = target: Gal(b1-3)[Fuc(a1-4)]GlcNAc(b1-2)Man(a1-3)[Gal(b1-3)[Fuc(a1-4)]GlcNAc(b1-2)Man(a1-6)]Man(b1-4)GlcNAc(b1-4)[Fuc(a1-6)]GlcNAc
In short: as §1

[13] = target: Gal(b1-3)[Fuc(a1-4)]GlcNAc(b1-3)Gal(b1-3)[Fuc(a1-4)]GlcNAc
In short: as §1

[14] = target: Gal(b1-3)[Fuc(a1-4)]GlcNAc(b1-3)Gal(b1-4)[Fuc(a1-3)]GlcNAc
In short: as §1

[15] = target: Gal(b1-3)[Fuc(a1-4)]GlcNAc(b1-6)GalNAc
In short: as §1

[16] = target: Gal(b1-3)[GlcNAc(b1-6)]GalNAc
In short: as §1

[17] = target: Gal(b1-3)[Neu5Ac(a2-6)]GalNAc
In short: as §1

[18] = target: Gal(b1-3)[Neu5Ac(a2-6)]GlcNAc(b1-4)Gal(b1-4)Glc
In short: as §1

[19] = target: Gal(b1-3)[Neu5Ac(b2-6)]GalNAc
In short: as §1

Gal(b1-4)Gal = target: Gal(b1-4)Gal
In short: as §1

[20] = target: Gal(b1-4)GalNAc(a1-3)[Fuc(a1-2)]Gal(b1-4)GlcNAc
In short: as §1

[21] = target: Gal(b1-4)GalNAc(b1-3)[Fuc(a1-2)]Gal(b1-4)GlcNAc
In short: as §1

Gal(b1-4)Glc = target: Gal(b1-4)Glc
In short: as §1

Gal(b1-4)Glc6S = target: Gal(b1-4)Glc6S
In short: as §1

Gal(b1-4)GlcNAc = target: Gal(b1-4)GlcNAc
In short: as §1

[22] = target: Gal(b1-4)GlcNAc(a1-6)Gal(b1-4)GlcNAc
In short: as §1

Gal(b1-4)GlcNAc(b1-2)Man = target: Gal(b1-4)GlcNAc(b1-2)Man
In short: as §1

[23] = target: Gal(b1-4)GlcNAc(b1-2)Man(a1-3)Man(b1-4)GlcNAc(b1-4)GlcNAc
In short: as §1

[24] = target: Gal(b1-4)GlcNAc(b1-2)Man(a1-3)[Gal(b1-4)GlcNAc(b1-2)Man(a1-6)]Man(b1-4)GlcNAc(b1-4)GlcNAc
In short: as §1

[25] = target: Gal(b1-4)GlcNAc(b1-2)Man(a1-3)[Gal(b1-4)GlcNAc(b1-2)Man(a1-6)]Man(b1-4)GlcNAc(b1-4)[Fuc(a1-6)]GlcNAc
In short: as §1

[26] = target: Gal(b1-4)GlcNAc(b1-2)Man(a1-3)[Gal(b1-4)GlcNAc(b1-2)Man(a1-6)][Gal(b1-4)GlcNAc(b1-4)]Man(b1-4)GlcNAc(b1-4)[Fuc(a1-6)]GlcNAc
In short: as §1

[27] = target: Gal(b1-4)GlcNAc(b1-2)Man(a1-3)[Gal(b1-4)GlcNAc(b1-2)Man(a1-6)][GlcNAc(b1-4)]Man(b1-4)GlcNAc(b1-4)[Fuc(a1-6)]GlcNAc
In short: as §1

[28] = target: Gal(b1-4)GlcNAc(b1-2)Man(a1-3)[GlcNAc(b1-2)Man(a1-6)]Man(b1-4)GlcNAc(b1-4)GlcNAc
In short: as §1

[29] = target: Gal(b1-4)GlcNAc(b1-2)Man(a1-3)[GlcNAc(b1-4)][Gal(b1-4)GlcNAc(b1-2)Man(a1-6)]Man(b1-4)GlcNAc(b1-4)GlcNAc
In short: as §1

[30] = target: Gal(b1-4)GlcNAc(b1-2)Man(a1-3)[Man(a1-6)]Man(b1-4)GlcNAc(b1-4)GlcNAc
In short: as §1

[31] = target: Gal(b1-4)GlcNAc(b1-2)Man(a1-6)Man(b1-4)GlcNAc(b1-4)GlcNAc
In short: as §1

[32] = target: Gal(b1-4)GlcNAc(b1-2)Man(a1-6)[GlcNAc(b1-2)Man(a1-3)]Man(b1-4)GlcNAc(b1-4)GlcNAc
In short: as §1

B1: B160 (Bifidobacterium sp) (protein)
chain: MVSHNKRIVAALAAVAAMGIGLAGCGGSDTAGDTKSGSDGGVVNITYMHRLPDSEGMTLVNDIVAKWNKEHPNIQVKATKFDGNAADMIKKLETDVKAGNAPDLAQVGYAEVPEVFTKGLLQDVTDEAAKYKDDFASGPFALMQVDGKTYGLPQDTGPLTYFYNAAEFEKLGITVPKTADELIETAKKTAAQGKYIMTFTPDEAMMMMSGQAGASGPWYKVDGNSWVVNTQTKGSKAVADVYQQLIDNKAALTNPRWDASFDNSIQSGQLIGTVAAAWEAPLFIDSAGGTGAGEWKVTQLGDWFGNGTKTGANGGSGVAVLKGSKHPAEAMEFLDWFNTQVDDLVSQGLVVAATTADAKTPQKWSDYFSGQDVMAEFKTANDNMGDFTYMPGFSAVGAAMKQTAAKAADGSAKVSDVFDTAQKTSVDTLKNLGLSVKE
glycan array binding signal (z-score) [1]: 8.35 | glycan array binding signal (z-score) [2]: 6.21 | glycan array binding signal (z-score) [3]: 5.45 | glycan array binding signal (z-score) [4]: -0.14 | glycan array binding signal (z-score) [5]: 1.41 | glycan array binding signal (z-score) [6]: -0.161 | glycan array binding signal (z-score) [7]: -0.163 | glycan array binding signal (z-score) [8]: -0.152 | glycan array binding signal (z-score) [9]: -0.162 | glycan array binding signal (z-score) (Gal(b1-3)GlcNAc6S): 6.55 | glycan array binding signal (z-score) [10]: -0.185 | glycan array binding signal (z-score) [11]: -0.128 | glycan array binding signal (z-score) [12]: -0.053 | glycan array binding signal (z-score) [13]: -0.141 | glycan array binding signal (z-score) [14]: -0.156 | glycan array binding signal (z-score) [15]: -0.112 | glycan array binding signal (z-score) [16]: -0.172 | glycan array binding signal (z-score) [17]: -0.039 | glycan array binding signal (z-score) [18]: 6.71 | glycan array binding signal (z-score) [19]: -0.186 | glycan array binding signal (z-score) (Gal(b1-4)Gal): -0.159 | glycan array binding signal (z-score) [20]: -0.144 | glycan array binding signal (z-score) [21]: -0.192 | glycan array binding signal (z-score) (Gal(b1-4)Glc): -0.171 | glycan array binding signal (z-score) (Gal(b1-4)Glc6S): -0.168 | glycan array binding signal (z-score) (Gal(b1-4)GlcNAc): -0.125 | glycan array binding signal (z-score) [22]: -0.151 | glycan array binding signal (z-score) (Gal(b1-4)GlcNAc(b1-2)Man): -0.176 | glycan array binding signal (z-score) [23]: -0.173 | glycan array binding signal (z-score) [24]: -0.168 | glycan array binding signal (z-score) [25]: -0.107 | glycan array binding signal (z-score) [26]: -0.187 | glycan array binding signal (z-score) [27]: -0.191 | glycan array binding signal (z-score) [28]: -0.172 | glycan array binding signal (z-score) [29]: -0.168 | glycan array binding signal (z-score) [30]: -0.176 | glycan array binding signal (z-score) [31]: -0.158 | glycan array binding signal (z-score) [32]: -0.145
